PubChem BioAssay AID1345082 (National Center for Advancing Translational Sciences (NCATS), 2018)
Where “and” joins values, the source holds several entries; their conditions need not be identical. Equal entries are not always repeated. Out of some 94,000 compounds screened, about 4,000 (4.3%) were called active. Inconclusive results, whose numbers are uncertain, are shown with a selection of clear calls. The call rests on the fitted dose curve; in most records, active means well fitted inhibition curve with a large enough effect; inconclusive means small, poorly fitted or top-dose-only effect; inactive means no such curve, though single readings can be large or run the other way. A potency beside an inconclusive call is a rough fit, not a confirmed value.

assay: Cytotoxic Profiling in NIH 3T3 Cell Line of Diverse Libraries Using Quantitative High-Throughput Screening; conditions: NIH 3T3 viability, CellTiter-Glo ATP luminescence, 48-72 h; activity change, negative = cytotoxicity: at 96.7 µM (top of the series); series mostly up to 96.7 µM; further: nearly all actives have a fitted effect of over 55% in size
Outline: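 Mouse fibroblast NIH 3T3 cells, 400 per well, received compound via pintool and were incubated for 48 or 72 hr prior to CellTiter-Glo ATP luminescence measurement.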
On the % scale 0 is the no-effect control and ±100 the full control effect; potency means the concentration at half of the fitted maximal effect; tags describe the fitted curve by direction and shape.

Q: With Cc1ncccc1-c1nc2cc(C(=O)N3CCCCC3)ccc2o1 as the compound, how does the Potency read?
A: Its Potency is inconclusive: 44.7 µM [inhibitor, partial curve, poor fit].

Q: For CCn1nc(CNC(=O)C2CCC(=O)N(C3CCCC3)C2)c2ccccc21 (stereo unspecified), which “activity change, negative = cytotoxicity” value is on record?
A: Its value is inactive: -3.82%.

Q: For Cc1nn(Cc2ccccc2)c(C)c1[C@@H]1C=C[C@@H](NC(=O)Nc2ccccc2)C1, which Potency is on record?
A: Its Potency is inconclusive: 8.91 µM [inhibitor, full curve, poor fit].

Q: For C#CCNC(=O)c1cc(-c2ccc([S+](C)(=O)[O-])cc2)c2cccn2n1, which Potency is on record?
A: Its Potency is inconclusive: 28.2 µM [inhibitor, full curve, poor fit].

Q: With CC(C)CNc1ccc2c(n1)C(C)(C(=O)NC1CCC(O)CC1)CN(Cc1ccccc1)C2 (stereo unspecified) as the compound, how does the Potency read?
A: The Potency was active: 44.7 µM.

Q: Which Potency does the source give for Cc1noc(C)c1-c1cn(C)c(=O)n2cc(COc3ccc(Cl)cc3)nc12 here?
A: Its Potency is inconclusive: 100 µM [inhibitor, single point].

Q: With COc1ccc(OC)c(S(=O)(=O)Nc2nc3c(s2)C[C@]2(C)CC[C@@H]4[C@H](OC(=O)[C@H]4C)[C@H]2[C@@H]3C)c1 as the compound, how does the Potency read?
A: Its Potency is inconclusive: 89.1 µM [inhibitor, single point].

Q: With O=C(C1CCCN1C(=O)c1ccc(Cl)nc1)N1CCC(c2ccccc2)CC1 (stereo unspecified) as the compound, how does the “activity change, negative = cytotoxicity” value read?
A: Its value is inactive: -24.5%.

Q: Which Potency does the source give for COc1ccc2nc(C[C@@H]3C[C@@H](C(C)C)[C@H](CNCc4ccc(NC(C)=O)cc4)C=C3C)[nH]c2c1 here?
A: The Potency was active: 39.8 µM.

Q: Which Potency does the source give for Cc1ccc2nc3n(c2c1)[C@@H](CNS(=O)(=O)c1ccccc1)COC3 here?
A: Its Potency is inconclusive: 56.2 µM [inhibitor, partial curve, poor fit].

Q: For COc1ccccc1N1CCN(C(=O)CCc2conc2-c2ccccc2F)CC1, which “activity change, negative = cytotoxicity” value is on record?
A: Its value is inactive: -8.02%.

Q: Which “activity change, negative = cytotoxicity” value does the source give for COCCN1CCCC2(CCN(c3nc(OC)cc(OC)n3)C2)C1=O (stereo unspecified) here?
A: Its value is inactive: 0.449%.

Q: With CCOCCNC(=O)C1CCCN(c2nccc(Nc3ccc(C)cc3)n2)C1 (stereo unspecified) as the compound, how does the Potency read?
A: The Potency was inconclusive: 50.1 µM [inhibitor, partial curve, poor fit].

Q: For Cc1cn2nc(C(=O)N3CCC(C(=O)NCCc4ccccc4)CC3)cc2c(=O)[nH]1, which “outcome” value is on record?
A: The value was “inactive”.

Q: Which “activity change, negative = cytotoxicity” value does the source give for Cn1nc(C2CC2)cc1NC(=O)c1cccc(Br)c1 here?
A: Its value is inactive: -29.2% [at 138 µM].

Q: With CCc1noc(-c2cn(C3CCN(C(=O)c4cccc(OC)c4)C3)nn2)n1 (stereo unspecified) as the compound, how does the Potency read?
A: Its Potency is inconclusive: 50.1 µM [inhibitor, partial curve, poor fit].

Q: With COc1ccccc1Nc1ccnc(N2CCN(C(=O)Cc3cccc(Cl)c3)CC2)n1 as the compound, how does the Potency read?
A: The Potency was inconclusive: 50.1 µM [inhibitor, partial curve, poor fit].

Q: Which Potency does the source give for CCCCNC(=O)N1CCC2(CC1)SCC(=O)N2c1ccc(OC)cc1 here?
A: The Potency was inconclusive: 70.8 µM [inhibitor, partial curve, poor fit].

Q: Which Potency does the source give for O=C1N[C@@H]2CCN(C(=O)COc3ccccc3)[C@@H]2C(=O)N1c1ccc(Oc2ccccc2)cc1 here?
A: The Potency was inconclusive: 44.7 µM [inhibitor, partial curve, poor fit].

Q: Which Potency does the source give for O=C(c1ccncc1)N1CC2CCC(C1)N2Cc1cccc(-c2ccc(F)cc2F)c1 here?
A: Its Potency is inconclusive: 50.1 µM [inhibitor, partial curve, poor fit].

Q: Which Potency does the source give for O=C(NCC1Cn2cccc2CN1Cc1ccccc1)Nc1ccccc1 (stereo unspecified) here?
A: The Potency was inconclusive: 50.1 µM [inhibitor, partial curve, poor fit].

Q: Which Potency does the source give for O=C(c1cccnc1)N1CCN(c2ccc3nnc(C4CC4)n3n2)CC1 here?
A: Its Potency is “inactive”.

Q: Which “activity change, negative = cytotoxicity” value does the source give for O=C(c1ccsc1)N1CCC(Cc2nc(-c3ccncc3)n[nH]2)C1 (stereo unspecified) here?
A: The value was inactive: -26.1%.

Q: With COc1cc(NC(=O)Cn2c(N3CCc4ccccc4C3)nc(C)cc2=O)cc(OC)c1OC as the compound, how does the Potency read?
A: Its Potency is inconclusive: 70.8 µM [inhibitor, single point].

Q: With C[S+](=O)([O-])c1cccc(NC(=O)Cc2c[nH]c3ncc(-c4cccnc4)cc23)c1 as the compound, how does the Potency read?
A: The Potency was active: 35.5 µM.

Q: Which Potency does the source give for O=C(NC[C@H]1O[C@@H](CC(=O)N2CCN(c3ccccc3)CC2)[C@H](O)[C@@H]1O)Nc1cccc(F)c1 here?
A: The Potency was inconclusive: 44.7 µM [inhibitor, partial curve, poor fit].

Q: Which Potency does the source give for CN1CCCCCCN(C(=O)CCC2CCCC2)[C@H]2CCC[C@H]2C1=O here?
A: Its Potency is inconclusive: 50.1 µM [inhibitor, partial curve, poor fit].

Q: Which Potency does the source give for CN(CCc1noc(C2CN(Cc3cc(Cl)ccc3F)C2)n1)S(C)(=O)=O here?
A: The Potency was inconclusive: 50.1 µM [inhibitor, partial curve, poor fit].

Q: Which Potency does the source give for COc1ccc(CCC(=O)N2CCC(Cc3nc(-c4ccc(OC)cc4)no3)CC2)cc1 here?
A: Its Potency is inconclusive: 11.2 µM [inhibitor, partial curve, poor fit].

Q: For CC(=O)NC1(C)CCN(Cc2ccc(-c3ccccc3Oc3ccccc3)cc2)C1 (stereo unspecified), which Potency is on record?
A: The Potency was active: 39.8 µM.

Q: Which “activity change, negative = cytotoxicity” value does the source give for Cc1noc(-c2ccc(OC(F)(F)F)cc2)c1C(=O)NCc1ccsc1 here?
A: Its value is inactive: -20.2%.

Q: Which “activity change, negative = cytotoxicity” value does the source give for Cc1ccccc1C(=O)N1CCCC(C(=O)N2CCC(N3Cc4cccn4C3=O)CC2)C1 (stereo unspecified) here?
A: Its value is inactive: -5.96%.

Q: With CC(=O)Nc1ccc(CN(C)Cc2cccn2C)cc1 as the compound, how does the “activity change, negative = cytotoxicity” value read?
A: The value was inactive: -6.61% [at 138 µM].

Q: For Cc1nn(-c2ccccc2)c2c1C(C(C)C)N(C1CN([S+](=O)([O-])C(C)C)C1)C2=O (stereo unspecified), which “activity change, negative = cytotoxicity” value is on record?
A: Its value is inactive: -18.6%.

Q: Which “activity change, negative = cytotoxicity” value does the source give for CC(C)C(=O)Nc1cc(-c2ccncc2)nn1-c1ccccc1 here?
A: The value was inactive: -16.5% [at 138 µM].

Q: Which “activity change, negative = cytotoxicity” value does the source give for O=C(O)c1ccnc(-c2ccnc(N3CCCOC(CN4CCCC4)C3)n2)c1 (stereo unspecified) here?
A: Its value is inactive: 1.9%.

Q: Which “outcome” value does the source give for Cc1noc(C)c1[S+](=O)([O-])N1CCC(c2nnc3n2C(C(=O)O)CC3)CC1 (stereo unspecified) here?
A: Its value is “inactive”.

Q: For Cc1cccc(OCC(=O)NCc2nnc3ccc(-c4ccc(F)cc4)nn23)c1, which “activity change, negative = cytotoxicity” value is on record?
A: Its value is inactive: -25.8%.

Q: For COc1ccc(CN2CCC3(C2)C(=NC2CCCCC2)NC(=O)N3c2cc(F)cc(F)c2)cc1 (stereo unspecified), which Potency is on record?
A: The Potency was inconclusive: 6.31 µM [inhibitor, full curve, poor fit].

Q: Which Potency does the source give for Cc1ccc(-c2nnc3ccc(NC4CCC4)nn23)nc1 here?
A: The Potency was inconclusive: 126 µM [inhibitor, partial curve, poor fit].

Q: With Cc1noc(C)c1C(=O)NC1CCCc2c1[nH]c1c(Cl)cccc21 (stereo unspecified) as the compound, how does the Potency read?
A: The Potency was inconclusive: 44.7 µM [inhibitor, partial curve, poor fit].

Q: For COc1ccc(-c2noc(-c3nc(C4CC4)no3)n2)cc1, which “activity change, negative = cytotoxicity” value is on record?
A: Its value is inactive: -11.2%.

Q: Which Potency does the source give for O=C(NCc1ccccc1)C1CC(c2ccccc2)CN(C(=O)c2ccccc2F)C1 (stereo unspecified) here?
A: The Potency was inconclusive: 50.1 µM [inhibitor, partial curve, poor fit].

Q: With COc1ccc(-c2cc(C(=O)NCC3CC3)c3cnn(C)c3n2)cc1 as the compound, how does the Potency read?
A: Its Potency is inconclusive: 44.7 µM [inhibitor, full curve, poor fit].

Q: Which “activity change, negative = cytotoxicity” value does the source give for Cc1cc(Cl)ccc1S(=O)(=O)N1CCc2nn(C)c(=O)n2CC1 here?
A: The value was inactive: 4.36%.

Q: Which Potency does the source give for Cc1ccc(Nc2ccnc(N3CCCC(C(=O)N4CCN(Cc5ccccc5)CC4)C3)n2)cc1 (stereo unspecified) here?
A: The Potency was active: 39.8 µM.

Q: For COc1ccc(N2CCN(C(=O)CCc3conc3-c3ccc(F)cc3)CC2)cc1, which “activity change, negative = cytotoxicity” value is on record?
A: The value was inactive: -28.1%.

Q: With O=C(CCCc1ccccc1)N1CCC(Cc2nc(-c3ccc(F)cc3)no2)CC1 as the compound, how does the Potency read?
A: Its Potency is inconclusive: 25.1 µM [inhibitor, partial curve].

Q: For COc1ccccc1-c1ccc(C(=O)N2CCC(NC(=O)c3ccccc3Cl)CC2)cc1, which Potency is on record?
A: The Potency was inconclusive: 44.7 µM [inhibitor, partial curve, poor fit] and inconclusive: 70.8 µM [inhibitor, partial curve, poor fit].

Q: For COc1ccc(C(=O)N2CCn3c(nnc3-c3cccnc3)C2)cc1, which “activity change, negative = cytotoxicity” value is on record?
A: The value was inactive: -7.18%.

Q: With Cc1nn(-c2ccccc2)c2c1C(C(C)C)N(C1CCN(C(=O)c3ccc(Cl)nc3)CC1)C2=O (stereo unspecified) as the compound, how does the “activity change, negative = cytotoxicity” value read?
A: The value was inactive: -26.8%.

Q: For COc1cncc(Nc2cnc3ccc(-c4ccccc4)nn23)c1, which Potency is on record?
A: The Potency was inconclusive: 56.2 µM [inhibitor, partial curve, poor fit].

Q: Which Potency does the source give for CC(=O)N1CCCN(Cc2ccc3c(c2)OCO3)c2ccccc21 here?
A: The Potency was inconclusive: 44.7 µM [inhibitor, partial curve].

Q: For COc1cccc(CC(=O)NCc2nnc3cc(-c4nc(C5CC5)no4)ccn23)c1, which “activity change, negative = cytotoxicity” value is on record?
A: Its value is inactive: 4.33%.

Q: For O=C(C1CCCC1)N1CCc2nc(-c3ccccc3)nc(-c3ccc(Cl)cc3)c2C1, which Potency is on record?
A: The Potency was inconclusive: 44.7 µM [inhibitor, partial curve, poor fit].

Q: For O=C(Nc1ccc(Oc2ccccc2)cc1)N[C@H]1CO[C@H]2[C@@H]1OC[C@@H]2n1nnnc1Oc1ccc(-n2cncn2)cc1, which Potency is on record?
A: Its Potency is inconclusive: 89.1 µM [inhibitor, partial curve, poor fit].

Q: For O=c1[nH]c(C2CCCN(Cc3ccccn3)C2)nn1-c1ccc(Cl)cc1 (stereo unspecified), which Potency is on record?
A: The Potency was active: 3.16 µM.

Q: Which Potency does the source give for COc1ccc(Nc2ncc(-c3cccnc3)c3c2OCC3)cc1 here?
A: The Potency was inconclusive: 79.4 µM [inhibitor, partial curve].

Q: With Cc1cnc(-c2ccccc2)n1CC1CCN(C(=O)C(C)c2ccccc2)CC1 (stereo unspecified) as the compound, how does the “activity change, negative = cytotoxicity” value read?
A: The value was inactive: -28.2%.

Q: Which “activity change, negative = cytotoxicity” value does the source give for O=C1NCCCCCN(Cc2cccnc2)[C@@H]2CN(Cc3cccc(F)c3)CC[C@@H]12 here?
A: Its value is inactive: -16.4%.

Q: Which “outcome” value does the source give for CNC(=O)c1cc(C2CC2)nc2c1c(C1CCN(C(=O)COC)C1)nn2C (stereo unspecified) here?
A: Its value is “inactive”.

Q: With O=C(Cc1ccc2c(c1)OCO2)N1CCOCC2(CN(Cc3ccccc3)C2)C1 as the compound, how does the Potency read?
A: The Potency was inconclusive: 112 µM [inhibitor, partial curve, poor fit].

Q: Which Potency does the source give for CC(C)CNc1ccc2nnc(-c3ccc(F)cn3)n2n1 here?
A: The Potency was inconclusive: 100 µM [inhibitor, partial curve, poor fit].

Q: For COCCn1c(=O)c2c(n1Cc1ccccc1)CN(C(=O)CCc1ccccn1)CC2, which Potency is on record?
A: The Potency was inconclusive: 100 µM [inhibitor, single point].

Q: With COc1ccc(OCc2nc(C3CN(C(=O)c4ccc5nc[nH]c5c4)C3)no2)cc1 as the compound, how does the Potency read?
A: Its Potency is inconclusive: 50.1 µM [inhibitor, partial curve, poor fit].

Q: For COc1ccccc1-n1c(=O)c(C(=O)N2CCN(C(=O)c3ccc(Cl)nc3)CC2)nc2cccnc21, which “activity change, negative = cytotoxicity” value is on record?
A: Its value is inactive: -2.58%.
